Measured values: PMC7819943, “Rice protein-binding microarrays: a tool to detect cis-acting elements near promoter regions in rice”
This is one part of the list.

These sequences were tested against T1, OsWOX13 (Oryza sativa, UniProt Q5QMM3 1-267) (assay: protein-binding microarray (RPBM); PBS, 2% BSA, 51.3 ng/ul salmon testes DNA, 50 uM zinc acetate, 200 nM TF, 25 C, 1 h; high values mean tight binding). Conditions: protein: recombinant; tags: N-terminal polyhistidine and DsRed monomer fusion (pET32a); label: CyDye5-dUTP incorporated in the synthesized complementary strand; 3' TTTTT single-stranded linker to array surface; dsDNA, one strand shown.
T1 sequence: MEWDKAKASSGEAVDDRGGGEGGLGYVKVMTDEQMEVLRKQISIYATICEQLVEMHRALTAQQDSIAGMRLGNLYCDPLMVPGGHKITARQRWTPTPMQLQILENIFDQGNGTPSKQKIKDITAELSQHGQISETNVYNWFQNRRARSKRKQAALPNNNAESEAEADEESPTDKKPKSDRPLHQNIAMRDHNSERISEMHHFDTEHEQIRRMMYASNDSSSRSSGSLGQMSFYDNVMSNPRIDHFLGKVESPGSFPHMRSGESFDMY
Method in brief: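 Binding signal is defined as the fluorescence intensity of each feature in arbitrary units, read on an Axon 4000B scanner. Transcription factors with N-terminal polyhistidine and DsRed fusions came from E. coli BL21-CodonPlus and were purified on Ni–NTA. They were incubated at 200 nM for 1 h at 25 °C on a custom Agilent array that had been made double-stranded with Cy5-dUTP, with 50 µM zinc acetate present, and the array was washed.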

Row | Sequence | binding signal
1 | AATAACTTTGCTTGAAATTGAAGTTAAGAGCACTTGACAGCGGAGTCACCTAGTGCAG | 3640 fluorescence intensity (a.u.)
2 | TTGATAATACATGCTGATTGTGAAATCAATAAGTTTGATGCGGAGTCACCTAGTGCAG | 14400 fluorescence intensity (a.u.)
3 | CACCTGACTGATTGGATTGGTATCGATCCAAGCCTATCAGCGGAGTCACCTAGTGCAG | 57100 fluorescence intensity (a.u.)
4 | CCTTAACTAAACTATTTTCGGATTCAAAATTCCTCAAAACCGGAGTCACCTAGTGCAG | 4310 fluorescence intensity (a.u.)
5 | AAATAAACATATTTTAATTGTTATTTAGAGAAAAGTGCACCGGAGTCACCTAGTGCAG | 18200 fluorescence intensity (a.u.)
6 | TGCTTGTGACTGACATCAATGAATCTGGAGTCACGATCGACGGAGTCACCTAGTGCAG | 9050 fluorescence intensity (a.u.)
7 | AATTTAATCATCATCCATCGGAATATTCTAATCCCCGTCCCGGAGTCACCTAGTGCAG | 5920 fluorescence intensity (a.u.)
8 | CCAACCATTGCAAATTTGCAATCAAATTTGGAGTATCAAACGGAGTCACCTAGTGCAG | 15700 fluorescence intensity (a.u.)
9 | TGACAAGCCTAATAGATATATAATTGATCCTCGTTGTTAACGGAGTCACCTAGTGCAG | 9220 fluorescence intensity (a.u.)
10 | TAATTAATTAATTAAGGCATATATGCGCGAGGTACAAACGCGGAGTCACCTAGTGCAG | 39600 fluorescence intensity (a.u.)
11 | GTTATCTTAAAAGTAAAATAAATTGACAAAGCAGCAGATACGGAGTCACCTAGTGCAG | 7620 fluorescence intensity (a.u.)
12 | TGCTAATGACTGATTAATTAGGCTTAATAAATTCGTCTTGCGGAGTCACCTAGTGCAG | 35300 fluorescence intensity (a.u.)
13 | GCACACGTAATTGAACTATATTAGACAGTACTAGCTCCAGCGGAGTCACCTAGTGCAG | 18300 fluorescence intensity (a.u.)
14 | AGCTAATTAAGCTCCCTAGTCGTAGCAAGCAAGGATGTAACGGAGTCACCTAGTGCAG | 10800 fluorescence intensity (a.u.)
15 | AGTACAAATAAATTGGTCAGTTTTATTTCATGATCCCATACGGAGTCACCTAGTGCAG | 12600 fluorescence intensity (a.u.)
16 | CCGCTAATGGACCTATTAAGACCGGTTTTATATAGTTAAACGGAGTCACCTAGTGCAG | 8430 fluorescence intensity (a.u.)
17 | TATTTGACAGAATGCAGGTGGTGGAAAGCAATATGCATTCCGGAGTCACCTAGTGCAG | 9470 fluorescence intensity (a.u.)
18 | CTAGTTTACATTTAATACTTCTAATTAGTACTCCCTCCGTCGGAGTCACCTAGTGCAG | 3290 fluorescence intensity (a.u.)
19 | CCTGACTGTCGACACCGACATGGATGGCCGTGTGTTGCCACGGAGTCACCTAGTGCAG | 5690 fluorescence intensity (a.u.)
20 | AAAATTGAATGAGACGAGTGGTCAAACGTTGCAAGCAAAACGGAGTCACCTAGTGCAG | 21100 fluorescence intensity (a.u.)
21 | GCACAAATTGGCTGGACCCATGGGATTAGCATGCAGCGTCCGGAGTCACCTAGTGCAG | 11800 fluorescence intensity (a.u.)

Row | Sequence | binding signal
22 | TCACTTTTAAAATATTTGTCAATCAAATGTGATGACTACACGGAGTCACCTAGTGCAG | 16500 fluorescence intensity (a.u.)
23 | TAAAATTCAGTTAATTTACTTAGTGCACTGACCAAACATCCGGAGTCACCTAGTGCAG | 16200 fluorescence intensity (a.u.)
24 | AGTGATTGATCAGTTGAATTATTGAGTTCTCCAATGAATTCGGAGTCACCTAGTGCAG | 34700 fluorescence intensity (a.u.)
25 | ATGTAAATTACTTTATTATTATATTAATATATATTTATCGCGGAGTCACCTAGTGCAG | 28000 fluorescence intensity (a.u.)
26 | ATTGTACGTTGATTTATATGCCTTACCTTACGATAGAACGCGGAGTCACCTAGTGCAG | 9610 fluorescence intensity (a.u.)
27 | CATTAGTTTGTGCCTGATAGAATTAAAATTTACATTCCAACGGAGTCACCTAGTGCAG | 3400 fluorescence intensity (a.u.)
28 | AATATTAAATTAGTTTCATTAAATCAATAATTAAATTTATCGGAGTCACCTAGTGCAG | 12700 fluorescence intensity (a.u.)
29 | GATAGATAGATTATCTGACAGACTTCCTCAACGAACGTAGCGGAGTCACCTAGTGCAG | 30300 fluorescence intensity (a.u.)
30 | CTGATGTGATTACGTCTATCCAGTATAATCCCTCTGGTTTCGGAGTCACCTAGTGCAG | 31700 fluorescence intensity (a.u.)
31 | TGTGATTTTCAATAAATTGACTCGCGTTTTCAACGGTTCCCGGAGTCACCTAGTGCAG | 33200 fluorescence intensity (a.u.)
32 | GCTTGATGAGTGCTAAGGCGCTGCCTTCACAAATCATACCCGGAGTCACCTAGTGCAG | 6190 fluorescence intensity (a.u.)
33 | AAGAAAACCTAATTGTTACTACCATTTACCAAACCTACCACGGAGTCACCTAGTGCAG | 3910 fluorescence intensity (a.u.)
34 | AAAAGAATCGAGAAATTGATGAGATCGCATAAGCAAGCAACGGAGTCACCTAGTGCAG | 3430 fluorescence intensity (a.u.)
35 | ATACTAATTATACGGTCACACCTATCCGTTGCATGATGCACGGAGTCACCTAGTGCAG | 21100 fluorescence intensity (a.u.)
36 | ATGATTTATATTCTCAAGGTTTGACTTAAACATTATCCTACGGAGTCACCTAGTGCAG | 10600 fluorescence intensity (a.u.)
37 | AATTTAATCAAGTGAAATAATGGGAGAATTAAAATTTTCCCGGAGTCACCTAGTGCAG | 4270 fluorescence intensity (a.u.)
38 | CTTAATTATTATGCTTGGTGTCTGCATTGTAACTGTATCTCGGAGTCACCTAGTGCAG | 33300 fluorescence intensity (a.u.)
39 | TGTAAATGTATAAGATATAAATTACACTTAAAGTACTATGCGGAGTCACCTAGTGCAG | 4980 fluorescence intensity (a.u.)
40 | TCTCCATCAAGGTAGCTAATTTCCCTTTCACACCACCCAACGGAGTCACCTAGTGCAG | 5210 fluorescence intensity (a.u.)
41 | GGATAGAATTGATTGAGCGAGAGAGAGAATTGAACACAAACGGAGTCACCTAGTGCAG | 21200 fluorescence intensity (a.u.)
42 | CTAGCCATTTATGGCCTGTGATTAATACAGTGTGTGGCCGCGGAGTCACCTAGTGCAG | 3320 fluorescence intensity (a.u.)
